Data published in paper PMC4336329 (PLoS ONE, 2015).
Screen size: about 310,000 compounds; about 14,000 (4.5%) showed an effect of 50% or more. Effects have a minus sign here. This is one part of the list.

target: human ether-à-go-go-related gene (hERG) potassium channel (human, UniProt Q12809); experiment: primary screen, population patch clamp on CHO cells stably expressing hERG
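Further: peak tail current of the secondary pulse compared with the same well before compound.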

Sequence of human ether-à-go-go-related gene (hERG) potassium channel (Q12809 whole entry, looked up): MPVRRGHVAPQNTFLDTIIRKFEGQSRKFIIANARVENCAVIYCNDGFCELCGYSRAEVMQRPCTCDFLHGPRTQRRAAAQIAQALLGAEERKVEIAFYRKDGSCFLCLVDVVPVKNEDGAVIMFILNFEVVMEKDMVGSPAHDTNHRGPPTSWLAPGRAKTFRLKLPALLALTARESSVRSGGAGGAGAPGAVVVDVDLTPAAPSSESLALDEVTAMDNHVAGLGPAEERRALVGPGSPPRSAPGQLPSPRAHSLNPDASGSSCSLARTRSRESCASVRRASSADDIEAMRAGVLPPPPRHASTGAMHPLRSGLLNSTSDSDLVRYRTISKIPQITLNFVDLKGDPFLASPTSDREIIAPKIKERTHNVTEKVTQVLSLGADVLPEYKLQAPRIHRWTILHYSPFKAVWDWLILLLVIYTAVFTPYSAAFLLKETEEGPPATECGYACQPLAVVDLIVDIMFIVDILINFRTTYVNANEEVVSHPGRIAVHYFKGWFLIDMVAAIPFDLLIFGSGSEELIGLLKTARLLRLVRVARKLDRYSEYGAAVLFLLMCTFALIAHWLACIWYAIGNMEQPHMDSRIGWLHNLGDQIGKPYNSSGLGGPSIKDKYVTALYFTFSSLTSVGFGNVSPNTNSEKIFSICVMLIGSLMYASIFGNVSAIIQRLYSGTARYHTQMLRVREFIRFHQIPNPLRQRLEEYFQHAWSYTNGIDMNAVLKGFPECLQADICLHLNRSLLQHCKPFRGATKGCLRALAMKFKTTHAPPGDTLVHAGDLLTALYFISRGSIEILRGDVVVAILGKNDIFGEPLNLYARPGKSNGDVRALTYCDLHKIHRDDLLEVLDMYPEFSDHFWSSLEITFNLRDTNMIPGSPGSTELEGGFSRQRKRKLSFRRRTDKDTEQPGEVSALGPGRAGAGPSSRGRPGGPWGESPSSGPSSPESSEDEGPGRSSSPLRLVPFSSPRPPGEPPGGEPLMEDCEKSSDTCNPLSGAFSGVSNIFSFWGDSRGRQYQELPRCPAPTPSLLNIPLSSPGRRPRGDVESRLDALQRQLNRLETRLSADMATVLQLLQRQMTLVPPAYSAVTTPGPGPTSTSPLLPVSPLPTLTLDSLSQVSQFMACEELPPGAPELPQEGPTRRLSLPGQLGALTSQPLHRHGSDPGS

| SMILES | hERG current change (%, negative = inhibition) at 10uM [%] |
| --- | --- |
| COc1ccc(CCNC(=O)COc2cc(O)c3c(c2)OC(C)(C)CC3=O)cc1 | -31.3 |
| COc1ccc(-c2cc(C(F)(F)F)n3ncc(C(=O)O)c3n2)cc1OC | 8.39 |
| CCCn1c(CNc2ccccc2O)nc2ccccc21 | -5.21 |
| CCN(Cc1cnn(C)c1)Cc1nc(C2(c3ccc(C)cc3)CCCC2)no1 | -19.5 |
| Cc1sc2nc3ccc(NCc4ccco4)nn3c(=O)c2c1C | -21.7 |
| COc1ccc(C(C(=O)NC(C)(C)C)N(C(=O)CCC(=O)Nc2cc(C)on2)c2cccc(F)c2)cc1 (stereo not shown) | 9.26 |
| COc1ccc(C(C(=O)NCC2CCCO2)N(Cc2ccco2)C(=O)c2snc(C(N)=O)c2N)cc1OC (stereo not shown) | 0.649 |
| COc1ccccc1OCC(=O)N1CCCC(Nc2cccc(F)c2)C1 (stereo not shown) | -1.55 |
| CC(C)Oc1ccc(Nc2ncnc3ccccc23)cc1.Cl | -46.7 |
| C[C@H]1CN=C(N(C)C)N1CCC1CCCC1 | 8.34 |
| CCN(CC)c1ccc2c(C)c(Cl)c(=O)oc2c1 | -14.4 |
| CCCSc1nc2ccsc2c(=O)n1CC | 11.7 |
| Cc1ccc(NC(=O)Nc2sc(=S)n(C)c2C)cc1 | 15.4 |
| COc1cccc(CC(=O)NC2CCCN(Cc3ccc(Cl)cc3)C2)c1 (stereo not shown) | -26.3 |
| CCOC(=O)Nc1nnc(/C=C/c2ccc(OC)cc2)s1 | -1.68 |
| Cc1cccc(OCCC(=O)Nc2ccccc2C(N)=O)c1 | 8.57 |
| CC(=O)Cc1nsc(NC(=O)c2ccc(COc3ccccc3Cl)o2)n1 | 2.65 |
| COc1ccc2c(C)cc(N3CCOCC3)nc2c1 | -7.7 |
| CCOC(=O)C1=C(COC(=O)CCOc2ccccc2C)NC(=O)NC1C (stereo not shown) | -28.4 |
| COc1ccc(CN2CCN(CCCc3ccccc3)C(CCO)C2)c(O)c1 (stereo not shown) | -83.1 |
| COC(C/C=C/C(=O)[C@H](C)OCc1ccccc1)OC | 15.8 |
| COc1ccc(-n2nc([N+](=O)[O-])c(=NCc3ccc4c(c3)OCO4)n2O)cc1 | 2.64 |

| SMILES | hERG current change (%, negative = inhibition) at 10uM [%] |
| --- | --- |
| CC(=O)c1cn(N(C)c2ncc(C(F)(F)F)cc2Cl)c(=O)[nH]c1=O | 4.84 |
| Cc1ccc(OCCNC(=O)c2cccc(C)c2)cc1 | 1.64 |
| CC(C)CNC(=O)COC(=O)c1cc(S(=O)(=O)N(C)C)ccc1N1CCCC1 | -13.2 |
| COC(=O)Cn1c(CN2CCOCC2)nc2c1c(=O)[nH]c(=O)n2C | 3.43 |
| COc1ccc(Cn2c(-c3ccc(OC)cc3)n[nH]c2=S)cc1 | 20 |
| CCOCCCNS(=O)(=O)c1ccc(NC(=O)c2ccc(OC)c([N+](=O)[O-])c2)cc1 | 22.3 |
| Cc1cc2c(cc1S(=O)(=O)N1CCN(c3ccccc3)CC1)OCC(=O)N2 | -8.37 |
| O=C(NCCC1=CCCCC1)C1CCCN(S(=O)(=O)c2cccnc2)C1 (stereo not shown) | -11.2 |
| CCN(CC)C(=O)CSC(Nc1cccc(F)c1)=C(C#N)C#N | 16 |
| COc1ccccc1-c1ccc(SCC(=O)NCc2ccc3c(c2)OCO3)nn1 | -6.04 |
| O=C(CCN1CCOCC1)Nc1cc(C(=O)Nc2ccccc2F)ccc1N1CC2CC(C1)c1cccc(=O)n1C2 (stereo not shown) | 11.8 |
| Nc1nnc(CCN2C(=O)CSC2=O)s1 | 13.9 |
| O=C(N/N=C/c1cn(-c2ccccc2)nc1-c1cccs1)c1ccncc1 | -10.2 |
| COc1ccc(OCC(=O)Nc2ccc3c(c2)nc(CCN2CCC(C)CC2)n3C)cc1 | -75.4 |
| O=C(COC(=O)C1CC2C=CC1C2)NCc1ccccc1Cl (stereo not shown) | -0.904 |
| Cc1nnc(SCC(=O)NNC(=O)COc2ccc(Br)cc2)n1C | -11.3 |
| O=C1NC(=O)N(c2ccc(Cl)cc2)C(=O)/C1=C\c1ccc(Sc2nc3ccccc3[nH]2)o1 | -65.6 |
| COCCN(C(=O)CSc1nnc(-c2cccs2)n1N)c1c(N)n(Cc2ccccc2)c(=O)[nH]c1=O | 0.15 |
| c1ccc(Nc2ccccn2)nc1 | 7.19 |
| O=C(O)c1n[nH]c2ccccc12 | -4.09 |
| Cc1cc(NC(=O)COC(=O)COc2ccc(Cl)cc2C)c([N+](=O)[O-])cc1C | 4.42 |
| O=C(CSc1nnc(SCc2ccccc2)s1)N/N=C/C=C/c1ccccc1[N+](=O)[O-] | -3.87 |

| SMILES | hERG current change (%, negative = inhibition) at 10uM [%] |
| --- | --- |
| Clc1ccc(-c2nnc3n2CCCCS3)cc1 | -4.8 |
| Cc1cc(NC(=O)CCC(=O)N(Cc2cccnc2)C(C(=O)NC(C)(C)C)c2ccccc2Cl)no1 (stereo not shown) | 8.8 |
| COc1ccc(C(=O)Oc2c(CN3CCOCC3)cc(Cl)c3cccnc23)cc1 | -23.9 |
| COc1cccc(/C=c2\sc3nc(-c4cccs4)nn3c2=O)c1OC | 6.41 |
| CCCC(=O)Nc1ccc(C(=O)NNC(=O)c2cccs2)cc1 | 12.2 |
| O=C(Nc1nc(-c2cc(Cl)sc2Cl)cs1)c1cccs1 | 22 |
| O=C1N(Cc2ccccc2)c2ccccc2C12OCCO2 | 18.9 |
| O=C1[C@@H]2[C@H](C(=O)N1n1cnnc1)[C@H]1C=C[C@@H]2C1 | 11.5 |
| O=C1CCCc2nc(N3CCN(C(=O)c4ccco4)CC3)ncc21 | 3.75 |
| CC(C)(C)NC(=O)N1CCN(c2nc(-c3ccccc3)ns2)CC1 | 0.919 |
| COC(=O)CCCCCCCCC(O)CN1CCCCC1.Cl (stereo not shown) | 8.53 |
| Cc1cc(C)c(S(=O)(=O)N2CCOC2CNC(=O)C(=O)NCc2ccco2)c(C)c1 (stereo not shown) | -8.68 |
| Cc1ccc(-c2csc3nc(C)n(N)c(=O)c23)o1 | 12.1 |
| O=C(COC(=O)CCc1ccc(S(=O)(=O)N2CCOCC2)cc1)NCc1ccccc1Cl | -38.5 |
| Cc1cc(C)c(C#N)c(SCCS(=O)(=O)Cc2ccc(Cl)cc2)n1 | 8.08 |
| CCn1cc(/C=C(\NC(=O)c2ccccc2OC)C(=O)NCCCn2ccnc2)c2ccccc21 | -19.2 |
| Cc1nonc1NC(=O)CSc1ccc(-c2ccccc2)nn1 | -30.3 |
| NNC(=O)CSc1c(-c2cccs2)[nH]c2ccccc12 | 7.58 |
| CCOc1ccc2[nH]c(=O)c(CN(CC3COCCO3)C(=O)c3ccco3)cc2c1 (stereo not shown) | -9.52 |
| CC(=O)N1c2ccc(S(=O)(=O)NCC3CCC(C(=O)N4CC(C)CC(C)C4)CC3)cc2CC1C (stereo not shown) | -14.8 |
| Cc1nn(C)cc1[C@@H]1C[C@H]2CN(Cc3cccc(Cl)c3)C(=O)[C@]23CCCN13 | -36.8 |
| COCC1CCN(Cc2c(C(=O)N3CCN(C4CCCCC4)CC3)nc3ccccn23)C1 (stereo not shown) | 3.86 |

| SMILES | hERG current change (%, negative = inhibition) at 10uM [%] |
| --- | --- |
| Cc1nc(NC(=O)CN(C)S(=O)(=O)c2ccc(Cl)cc2)sc1C | -4.08 |
| CSc1ccccc1NC(=O)c1noc(C)c1[N+](=O)[O-] | -3.27 |
| COc1ccccc1CCn1c(N)c(C#N)c2nc3ccccc3nc21 | -6.3 |
| CCOc1ccc(NC(=O)CN(C)C(=O)c2ccccc2OCCOc2ccccc2)cc1OCC | -26.9 |
| Cn1cc(C(=O)NC2C3CC4CC(C3)CC2C4)cn1 (stereo not shown) | 15.7 |
| Cc1cc(NC(=O)CSc2nc3ccccc3c(=O)n2Cc2ccccc2)no1 | 6.67 |
| CCOC(=O)c1c(NC(=O)CCN2CCOCC2)sc2c1CC(C)(C)OC2 | -34.4 |
| COc1ccc(C2CC(C(F)(F)F)n3ncc(C(=O)NCC4CCCO4)c3N2)cc1OC (stereo not shown) | 3.34 |
| CC(=O)N1CCc2c(sc3c2c(=O)n(-c2ccccc2)c(=O)n3CC(=O)NCC2CCCO2)C1 (stereo not shown) | -3.4 |
| Cc1ccc(-c2cc(C(=O)N3CCc4ccccc4C3)[nH]n2)cc1C | 9.83 |
| COc1cc(C(=O)Oc2cccc(/C=N/NC(=O)c3cc(C)[nH]n3)c2)cc(OC)c1OC | 16.5 |
| COc1ccc(CC(=O)OCC(=O)NC2CCCCC2)cc1 | -18.1 |
| CCOc1ccc(NC(=O)NNC(=O)COc2ccc3ccccc3c2)cc1 | 24.2 |
| COC(=O)Cn1c(O)c(N=NC(=O)OC)c2ccccc21 | 8.62 |
| COc1ccc(NC(=O)CCn2nc(C)cc2C)cc1 | 7.72 |
| Cn1c(=O)c(C(=O)NC2CCCCCCC2)c(O)c2ccccc21 | 1.85 |
| Cc1csc(NC(=O)CSc2nnc(-c3ccoc3C)n2C(C)c2ccccc2)n1 (stereo not shown) | -74.1 |
| Cc1ccc(NC(=O)c2c(Cl)nc3ccccn23)cc1 | 7 |
| O=C(CC1CCCC1)NNC(=O)c1ccc(F)cc1 | 6.27 |
| CCCOc1ccc(C(=O)CCC(=O)OCC(=O)Nc2ccc(Oc3ccccc3)cc2)cc1 | -13.3 |
| Cc1cnc(C(=O)Nc2nnc(C3CC3)s2)cn1 | 1.12 |
| c1cc(-c2cn(C[C@H]3CC[C@@H]([C@@H]4CC[C@H](Cn5cc(-c6ccsc6)nn5)O4)O3)nn2)cs1 | -75.5 |
